Common to all, as to test: uncleaved DNA left, log2 of reads against the no-enzyme library (log2 ratio); higher = less cleavage (more negative = more Rep cleavage of the k-mer); sequences stand for … in CTCGTCCG…ACCGGAGA
The test system of assay [1] is T1, Rep nickase domain of Muscovy duck circovirus.
T1 sequence (Rep 1-111, printed without the tag): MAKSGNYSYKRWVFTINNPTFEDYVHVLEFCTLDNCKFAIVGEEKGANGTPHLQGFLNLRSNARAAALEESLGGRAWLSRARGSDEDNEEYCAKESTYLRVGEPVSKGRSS
How it is done: (§1)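 A pool of 90-nt single-stranded DNAs with seven random bases just before the constant AC of the nick site (name = the seven bases) was cut by 3 µM recombinant His6-SUMO-tagged Rep nickase domain (300 nM DNA, 50 mM HEPES pH 8.0, 50 mM NaCl, 1 mM MnCl2, 1 h, 37 °C, three replicates). Uncut DNA was amplified and sequenced.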

Assay [2] deals with T2, Rep nickase domain of banana bunchy top virus.
T2 sequence (Rep 1-94, printed without the tag): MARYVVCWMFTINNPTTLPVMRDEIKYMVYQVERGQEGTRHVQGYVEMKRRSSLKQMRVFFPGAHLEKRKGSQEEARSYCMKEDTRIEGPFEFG
How it is done:
as §1

Assay [3] deals with T3, Rep nickase domain of cabbage leaf curl virus.
T3 sequence (Rep 1-116, printed without the tag): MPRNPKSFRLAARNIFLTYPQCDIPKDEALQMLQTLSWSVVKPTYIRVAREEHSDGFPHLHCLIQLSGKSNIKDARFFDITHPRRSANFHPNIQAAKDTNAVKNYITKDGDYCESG
The method, then: as §1
Assay [4] deals with T4, Rep nickase domain of chickpea chlorotic dwarf virus.
T4 sequence (Rep 1-124, printed without the tag): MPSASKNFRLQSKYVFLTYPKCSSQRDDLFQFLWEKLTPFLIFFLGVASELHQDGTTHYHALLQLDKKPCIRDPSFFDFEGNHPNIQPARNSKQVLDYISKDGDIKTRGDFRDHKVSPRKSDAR
The method, then:
as §1

The test system of assay [5] is T5, Rep nickase domain of faba bean necrotic yellows virus.
T5 sequence (Rep 1-98, printed without the tag): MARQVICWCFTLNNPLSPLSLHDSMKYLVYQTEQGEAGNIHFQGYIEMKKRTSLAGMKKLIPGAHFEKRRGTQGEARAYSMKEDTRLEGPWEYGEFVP
How it is done:
as §1

Assay [6] has as its system T6, Rep nickase domain of maize striate mosaic virus.
T6 sequence (Rep 1-117, printed without the tag): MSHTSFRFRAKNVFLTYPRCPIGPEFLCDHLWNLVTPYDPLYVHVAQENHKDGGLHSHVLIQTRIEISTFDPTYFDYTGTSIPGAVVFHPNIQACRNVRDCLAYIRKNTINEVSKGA
How it is done:
as §1

Assay [7] deals with T7, Rep nickase domain of porcine circovirus 2.
T7 sequence (Rep 2-116, printed without the tag): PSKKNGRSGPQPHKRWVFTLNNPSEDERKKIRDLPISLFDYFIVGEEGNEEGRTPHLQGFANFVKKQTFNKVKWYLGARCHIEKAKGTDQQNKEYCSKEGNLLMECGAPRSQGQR
How it is done:
as §1

In assay [8] the test system is T8, Rep nickase domain of tomato golden mosaic virus.
T8 sequence (Rep 1-124, printed without the tag): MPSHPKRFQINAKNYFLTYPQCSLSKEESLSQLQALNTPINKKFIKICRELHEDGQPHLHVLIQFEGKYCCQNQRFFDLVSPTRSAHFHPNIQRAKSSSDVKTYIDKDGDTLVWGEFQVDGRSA
How it is done:
as §1

Assay [9] relates to T9, Rep nickase domain of tomato yellow leaf curl virus.
T9 sequence (Rep 1-136, printed without the tag): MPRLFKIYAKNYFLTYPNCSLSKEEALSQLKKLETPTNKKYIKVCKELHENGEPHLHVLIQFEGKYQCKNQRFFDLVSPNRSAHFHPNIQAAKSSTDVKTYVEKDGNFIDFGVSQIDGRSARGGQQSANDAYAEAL
How it is done:
as §1

Assay [10] concerns T10, Rep nickase domain of wheat dwarf virus.
T10 sequence (Rep 1-137, printed without the tag): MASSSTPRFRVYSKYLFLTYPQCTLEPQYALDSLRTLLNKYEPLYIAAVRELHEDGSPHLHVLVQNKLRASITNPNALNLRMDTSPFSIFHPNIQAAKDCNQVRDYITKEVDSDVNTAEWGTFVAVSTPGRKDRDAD
The method, then: as §1

Here are results for 15 sequences from the supplement of paper PMC7826260.

The list shows a part of the results. One pool of 16,384 single-stranded DNAs met each Rep nickase domain in vitro (3 µM enzyme, 1 h, 37 °C); shown is the middle of each 90-letter strand. Uncut reads are compared with the no-enzyme pool on a log2 scale; the lower, the more was cut; hits are not called. Because reads are shares of a total, they shift together; uncut strands gain when others are lost, and binding without cutting may add a little.

Take GGTTTCG: the “uncleaved DNA left (log2)” value in [1] was 0.119; in assay [2], 0.0422; in assay [3] it was -0.676; in assay [4] it was -0.288; in assay [5] it was -0.0165; in assay [6], -0.545. The “uncleaved DNA left (log2)” value in assay [7] was 0.223; in [8], -0.119; in assay [9] it was -0.00437; in assay [10] it was -0.114.

Consider AAGACTC, for which the “uncleaved DNA left (log2)” value in assay [1] is 0.154; in assay [2], 0.102; in assay [3] it was 0.142; in [4], 0.377; in assay [5] it was 0.0446; in assay [6], 1.02. The “uncleaved DNA left (log2)” value in assay [7] was determined as 0.0379; in assay [8], 0.0123; in [9], 0.0236; in assay [10], 0.17.

Take TCTGGCT: the “uncleaved DNA left (log2)” value in assay [1] was 0.0778; in assay [2] it was -0.00357; in assay [3] it was -0.246; in assay [4], -0.701; in [5], 0.0603; in assay [6], -0.537. Further, the “uncleaved DNA left (log2)” value was 0.0442 in [7], 0.0103 in assay [8], -0.0229 in [9] and -0.00992 in assay [10].

For the sequence GCACCAG, the “uncleaved DNA left (log2)” value in assay [1] is -0.0696; in assay [2] it was 0.0218; in [3], -0.528; in [4], -0.375; in [5], -0.00727; in [6], -0.811. Moreover, the “uncleaved DNA left (log2)” value in assay [7] is 0.0552; in assay [8], -0.0383; in assay [9] it was 0.0246; in assay [10], -0.12.

On to CCGTGGT, for which the “uncleaved DNA left (log2)” value in assay [1] was -0.108; in [2], -0.0861; in assay [3], -0.941; in [4], -0.985; in [5] it was -0.0634; in [6], 0.203. The “uncleaved DNA left (log2)” value in assay [7] was -2.44; in assay [8] it was -0.394; in [9] it was -0.0583; in [10], -1.29.

Take GATCAAG: the “uncleaved DNA left (log2)” value in assay [1] is 0.0554; in [2], 0.0509; in assay [3], -0.649; in assay [4], -0.479; in assay [5] it was 0.0478; in assay [6], -1.03. The “uncleaved DNA left (log2)” value in assay [7] is 0.0725; in assay [8], -0.008; in [9] it was 0.0146; in [10], -0.0181.

As for CATGCGA, the “uncleaved DNA left (log2)” value in [1] is -0.0766; in assay [2] it was -0.107; in assay [3], -0.728; in assay [4] it was 0.287; in [5], -0.0357; in assay [6], -0.439. Further, the “uncleaved DNA left (log2)” value in [7] was 0.11; in [8] it was -0.131; in assay [9], -0.0138; in assay [10] it was -0.195.

For the sequence AGACGTA, the “uncleaved DNA left (log2)” value in [1] was 0.0279; in assay [2] it was 0.189; in [3], 0.259; in assay [4], -0.867; in assay [5], 0.083; in [6], 1. For the same sequence, the “uncleaved DNA left (log2)” value in assay [7] is -0.0157; in assay [8], 0.0995; in [9], -0.00532; in assay [10], 0.0222.

Regarding GTTGACT, the “uncleaved DNA left (log2)” value in assay [1] was 0.113; in assay [2], 0.0464; in assay [3], 0.363; in assay [4], 0.93; in [5] it was 0.0102; in assay [6], 1.65. Moreover, the “uncleaved DNA left (log2)” value in [7] is 0.138; in [8], -0.0341; in assay [9], 0.155; in [10], 0.0943.

In the case of CTTCCTA, the “uncleaved DNA left (log2)” value in assay [1] was -0.171; in assay [2], -0.000492; in [3], -0.02; in assay [4] it was -1.17; in assay [5] it was -0.138; in assay [6] it was -0.48. Besides, the “uncleaved DNA left (log2)” value was -0.401 in assay [7], 0.00409 in assay [8], 0.0577 in [9] and 0.0098 in assay [10].

As to CGTTGTT, the “uncleaved DNA left (log2)” value in assay [1] is -2.76; in assay [2] it was -0.685; in assay [3], -0.444; in assay [4] it was -1.95; in assay [5] it was -0.158; in [6], -0.83. For the same sequence, the “uncleaved DNA left (log2)” value in assay [7] is -2.75; in [8], -0.146; in assay [9], -0.0377; in assay [10], -0.337.

As to AACTCCT, the “uncleaved DNA left (log2)” value in assay [1] is -2.02; in assay [2], -1.19; in assay [3], -0.392; in [4] it was -3.09; in assay [5], 0.013; in assay [6], -0.226. In addition, the “uncleaved DNA left (log2)” value was -3.49 in assay [7], -0.104 in assay [8], 0.0217 in assay [9] and -0.114 in assay [10].

For CACCGAC, the “uncleaved DNA left (log2)” value in assay [1] was 0.0471; in assay [2] it was -0.014; in assay [3] it was -0.0568; in assay [4], 0.0925; in assay [5], -0.0184; in assay [6], -0.503. Further, the “uncleaved DNA left (log2)” value in assay [7] was 0.031; in assay [8] it was -0.0854; in assay [9], 0.0768; in assay [10], 0.125.

In the case of GGGACGG, the “uncleaved DNA left (log2)” value in [1] is 0.0668; in assay [2], 0.171; in assay [3], 0.986; in [4], 2.05; in [5] it was 0.0425; in [6], 2.41. The “uncleaved DNA left (log2)” value in assay [7] worked out at 0.324; in [8] it was 0.145; in [9] it was 0.0491; in assay [10] it was 0.182.

For ACTAGGC, the “uncleaved DNA left (log2)” value in assay [1] was 0.0712; in assay [2], 0.0638; in assay [3], -0.172; in [4], -0.0837; in assay [5] it was 0.0942; in [6], -0.916. Also, the “uncleaved DNA left (log2)” value in [7] came out at 0.175; in [8] it was 0.145; in assay [9], 0.0735; in assay [10], 0.0212.
